Data reported in the supplement of paper PMC11417369.
± gives the standard deviation of the averaged measurements. The list shows a part of the results.

The sequences below were run on PfAP2-EXP AP2 domain (GST-tagged) (assay: gcPBM binding intensity (ln(normalized median fluorescence intensity)); higher = stronger DNA binding).
In short: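 Binding of GST-tagged P. falciparum DNA-binding domains, expressed in E. coli and used at about 25 μg on average, was carried out for 1 h in 1× PBS containing 1% milk, 0.2 mg/ml BSA, 0.5% salmon testes DNA and 0.03% Triton X-100. The target was an Agilent 4 × 180k array of primer-extended double-stranded 36-bp intergenic genomic probes plus negative controls, read with Alexa488 anti-GST antibody at 488 nm. Binding intensity is the highest Masliner-normalised natural-log median intensity across replicate spots of either probe orientation.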
With “ATATTTTATTTATATACACACACATATATATATTAT [CACACA_site8177]” the “gcPBM binding intensity (ln)” value was 8.79 ± 0.47.
“CTTTATATAAAATAAAGTACATAAATTATGATATAT [XGTACX_site3699]” was tested, and the “gcPBM binding intensity (ln)” value was 8.59 ± 0.4.
“TTCTTTATATACAAACCAAAATATTATGTATAATAA [CACACA_negctrl_site15]” was tested, and the “gcPBM binding intensity (ln)” value was 8.26 ± 0.49.
In the case of “TTATTATATATTTTATTTATTAATAGTATATATTAT [TGCATGCA_negctrl_site155]”, the “gcPBM binding intensity (ln)” value is reported as 8.11 ± 0.27.
“TAATTTTTTTTTATGATACACACTTGGATAATTAAA [CACACA_site562]” was tested, and the “gcPBM binding intensity (ln)” value was 8.19 ± 0.39.
With “AAGGAAATATAATATACACACATAAGTGTACTTATA [CACACA_site4030]” the “gcPBM binding intensity (ln)” value was 8.23 ± 0.22.
“GAAAAATTAAAAATAACACACACATATATATATTTA [CACACA_site8896]” was tested, and the “gcPBM binding intensity (ln)” value was 8.46 ± 0.44.
In the case of “TAATAAAGTGAATAATGTACATTTTATTTATTATAT [XGTACX_site6614]”, the “gcPBM binding intensity (ln)” value is reported as 8.24 ± 0.34.
“ATTATATATCCCTATTCACACATGTATTATATAAAT [CACACA_site5486]” was tested, and the “gcPBM binding intensity (ln)” value was 8.97 ± 0.46.
With “TCAGTAATACTTGAATGTACTTATATTGTTTGTTTG [XGTACX_site6449]” the “gcPBM binding intensity (ln)” value was 8.41 ± 0.32.
For “CCTATATTAAAACAAGCACACAATCGCATAATATCC [CACACA_site9052]”, the “gcPBM binding intensity (ln)” value was 8.71 ± 0.57.
With “TTAACATATTTGTTAGTGCATTTTGATATTACACAT [GTGCAC_site9978]” the “gcPBM binding intensity (ln)” value was 8.6 ± 0.33.
With “AAAAAAATTAAATGTACACACACCTTAAACAATGTC [CACACA_site1855]” the “gcPBM binding intensity (ln)” value was 8.48 ± 0.36.
In the case of “CTAATATCTGTATGCACACACAATAAATACATATTT [CACACA_site5797]”, the “gcPBM binding intensity (ln)” value is reported as 8.52 ± 0.31.
With “ATTTATTTTATATGTTGTACAAACATTTTAAAACAT [XGTACX_site6919]” the “gcPBM binding intensity (ln)” value was 8.65 ± 0.42.
For TCTTTTTCTTGACGAGTGCAAAAATTGTGTTTGAAA, the “gcPBM binding intensity (ln)” value was 8.92 ± 0.028.
“ATAAATAAATAAATAAATAAATAAATAAATATATAT [CACACA_negctrl_site1728]” was tested, and the “gcPBM binding intensity (ln)” value was 8.42 ± 0.21.
In the case of “TTTTTTTAAAGAATTATCATAAAATGATTGCATCAT [XGTACX_negctrl_site141]”, the “gcPBM binding intensity (ln)” value is reported as 7.9 ± 0.4.
For “AATGCCTTGTTGAGGTGTACTGAATGTTATTTTAAT [XGTACX_site3255]”, the “gcPBM binding intensity (ln)” value was 8.28 ± 0.45.
For “ATCAACATCTAACATTGTACATGTGATGTGTAAAAG [XGTACX_site547]”, the “gcPBM binding intensity (ln)” value was 8.49 ± 0.33.
For “ATATTTGCCCAAGATAGTACATATATATATATATAT [XGTACX_site7756]”, the “gcPBM binding intensity (ln)” value was 10.2 ± 0.24.
For “TATATATATATATATTGTACATATATTATTATATAT [XGTACX_site7447]”, the “gcPBM binding intensity (ln)” value was 10.2 ± 0.57.
For “AAATAGCCAAAAATCATGCACACCTAAAAAAAAAAA [CACACA_site2572]”, the “gcPBM binding intensity (ln)” value was 8.57 ± 0.42.
“ATATTGGAGCACAACACACACAAGTATATATATGGA [CACACA_site1546]” was tested, and the “gcPBM binding intensity (ln)” value was 8.8 ± 0.47.
For “CACATACAGACATACACACACATATATATTAATATA [CACACA_site546]”, the “gcPBM binding intensity (ln)” value was 8.65 ± 0.49.
“CATACATACAAACACACACACACACCGATATATATA [CACACA_site8952]” was tested, and the “gcPBM binding intensity (ln)” value was 8.8 ± 0.49.
“AATTCTCTTAATAAATAAACACAAATAAATAATAAA [GTGCAC_negctrl_site499]” was tested, and the “gcPBM binding intensity (ln)” value was 8.47 ± 0.35.
With “TATATAATAAAAAAAAGTACTTGGACAATATTATTT [XGTACX_site2802]” the “gcPBM binding intensity (ln)” value was 8.68 ± 0.42.
In the case of “TTAATTTACATGAACTGTACATAACATTTTTTTAAA [XGTACX_site4672]”, the “gcPBM binding intensity (ln)” value is reported as 8.38 ± 0.38.
“ATCAAAATATTTATATGTACATATTAAAAATATAGA [XGTACX_site725]” was tested, and the “gcPBM binding intensity (ln)” value was 8.41 ± 0.33.
“AATGTTTTATTTTGAAGTACATTTAAGAATTTTTTA [XGTACX_site7814]” was tested, and the “gcPBM binding intensity (ln)” value was 8.17 ± 0.44.
“TATATATGCATATACATACACACATAACACATACGT [CACACA_site3833]” was tested, and the “gcPBM binding intensity (ln)” value was 8.61 ± 0.37.
“TTATGTTCTTTAAAACCACACACCCCCCAACCCCCC [CACACA_site8742]” was tested, and the “gcPBM binding intensity (ln)” value was 10.9 ± 0.29.
For “TATGAAATTATAATTACACACAGGAAAATAAAATGT [CACACA_site1517]”, the “gcPBM binding intensity (ln)” value was 9.01 ± 0.47.
For “ATATAATAATAAGGCACACAAATTAAAATATAAAAA [CACACA_site3710]”, the “gcPBM binding intensity (ln)” value was 8.79 ± 0.35.
In the case of “AAATAATTTGTTGACACACACACACCCATACAGATA [CACACA_site5291]”, the “gcPBM binding intensity (ln)” value is reported as 8.93 ± 0.43.
For “AAGGATCACAGACAAACACACATATATATATATATA [CACACA_site4469]”, the “gcPBM binding intensity (ln)” value was 10.2 ± 0.37.
“CATTATGTCGTAAATACACACATACATATACATACA [CACACA_site8383]” was tested, and the “gcPBM binding intensity (ln)” value was 8.62 ± 0.51.
TTTTGACCATATCTGTTGCACTTTTGTGCTATTCGA was tested, and the “gcPBM binding intensity (ln)” value was 8.73 ± 0.28.
For “ATTAATTCGTTTTGTACACACATAATGAGTAATTTA [CACACA_site7118]”, the “gcPBM binding intensity (ln)” value was 8.47 ± 0.25.
In the case of “TAAATTTTTTCCTCCTGTACTTATTATATTTTTTTG [XGTACX_site1572]”, the “gcPBM binding intensity (ln)” value is reported as 8.76 ± 0.33.
“TTTTTTTTTTTTTTTTGTACTCATATCTACTATCAT [XGTACX_site274]” was tested, and the “gcPBM binding intensity (ln)” value was 8.32 ± 0.47.
“ACAAGGTTTACGGGTAGTACAAATTTTTGAACATCT [XGTACX_site4739]” was tested, and the “gcPBM binding intensity (ln)” value was 8.55 ± 0.3.
“ATAAAAATTGATTATACACACGCGCCCAGACAACAA [CACACA_site5870]” was tested, and the “gcPBM binding intensity (ln)” value was 9.01 ± 0.45.
With “ATATAGATGCATAATACACACATCAGATAATTAACC [CACACA_site6871]” the “gcPBM binding intensity (ln)” value was 8.64 ± 0.33.
“ATTAAAAGTTTATACAAATAAAAAACAAAACAAAAA [CACACA_negctrl_site1030]” was tested, and the “gcPBM binding intensity (ln)” value was 8.62 ± 0.45.
With “AGCCAAACCTTAAATTTAGCAATAAGTTTACAGGTC [CACACA_negctrl_site360]” the “gcPBM binding intensity (ln)” value was 8.18 ± 0.36.
“GTAAAATGATATAAATGTACATAATATATATATGTC [XGTACX_site4049]” was tested, and the “gcPBM binding intensity (ln)” value was 8.58 ± 0.41.
With “TGTGTATTTATAAATACACACCAAATGTTAATATAT [CACACA_site6904]” the “gcPBM binding intensity (ln)” value was 8.56 ± 0.43.
With “TGTCATATTATAAATTGTACAAATAGTATAATTATT [XGTACX_site581]” the “gcPBM binding intensity (ln)” value was 8.44 ± 0.37.
In the case of “AGTATACATATATATACACACATATATATATATATA [CACACA_site300]”, the “gcPBM binding intensity (ln)” value is reported as 10.2 ± 0.34.
“ATAAAAATATTATAAGCACACATATATATATATATA [CACACA_site8781]” was tested, and the “gcPBM binding intensity (ln)” value was 10.2 ± 0.34.
With “ATTTTATCTTTAAACTGTACGTATTAATATGTAGAA [XGTACX_site3077]” the “gcPBM binding intensity (ln)” value was 8.47 ± 0.38.
With “TTATGCCTTTAATATACACACTAATATTTTTTTGGC [CACACA_site5171]” the “gcPBM binding intensity (ln)” value was 8.38 ± 0.38.
For “AACTATAAAAATTTTACACACTGTTTTTAAATAATG [CACACA_site5928]”, the “gcPBM binding intensity (ln)” value was 8.52 ± 0.45.
For “TATATGAAGTACACAATACACACTAATTATATATAA [CACACA_site2608]”, the “gcPBM binding intensity (ln)” value was 8.59 ± 0.41.
For “AATTTTTTTTTTAGACGTACAAGAAAAAACAAAAAA [XGTACX_site4990]”, the “gcPBM binding intensity (ln)” value was 8.82 ± 0.41.
